Results as given in PubChem BioAssay AID1345083 (National Center for Advancing Translational Sciences (NCATS), 2018).
Values joined by “and” are separate entries in the source; they are usually repeats but may differ in a detail not shown here. Identical values can stand only once. The campaign covered roughly 94,000 compounds. About 6,200 (6.6%) were called active. Inconclusive results, whose numbers are uncertain, are shown with a selection of clear calls. Calls follow the shape of the dose curve; as a rule, active = well fitted inhibition curve with a large enough effect; inconclusive = small, poorly fitted or top-dose-only effect; inactive = flat fitted curve, though single readings scatter. Potencies beside an inconclusive call are fits to weak or partial responses and may not hold up.

Test: Cytotoxic Profiling in HEK 293 Cell Line of Diverse Libraries Using Quantitative High-Throughput Screening; also: nearly all actives have a fitted effect of over 60% in size
Details: HEK 293 viability, ATP luminescence (CellTiter-Glo), 48-72 h; activity change, negative = cytotoxicity: at 115 µM (top of the series) unless noted; series mostly up to 115 µM
Procedure, shortened: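 qHTS cytotoxicity; HEK 293, 250 cells/well; compound pinned; 48 or 72 hr, 37 degree Celsius, 5% CO2, 95% humidity; CellTiter-Glo, 10 min RT; luminescence (ATP).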
% is scaled to controls: 0 for no effect and ±100 for the full control effect; potency is read from the fitted curve at half-maximal effect; tags tell the direction and shape of the fitted curve.

Structure (SMILES)	Potency	activity change, negative = cytotoxicity	outcome
CC(C)c1ccc(NC(=O)CN2C(=O)C(c3ccccc3)=NC2(C)C)cc1	inconclusive: 79.4 µM [inhibitor, single point]	–	–
CN(Cc1cccnc1)C(=O)CCC[C@@H]1[C@H]2CCCN3CCC[C@@H](CN1C(=O)c1cccnc1)[C@@H]23	–	inactive: -1.49%	–
O=C(NC1CCCCC1)N1CCc2c(nc(-c3ccncc3)[nH]c2=O)C1	–	inactive: -9.41%	–
CCC(=O)N(C1CCOCC1)C1CCN(Cc2ccc(C(F)(F)F)cc2)CC1	inconclusive: 44.7 µM [inhibitor, partial curve, poor fit]	–	–
COc1ccc(Cl)cc1C(=O)NCc1nnc2c(-c3nc(C(C)C)no3)cccn12	–	–	inactive
CC(C)NC(=O)C1Cn2cccc2C(=O)N1C (centres undefined)	–	inactive: 0.507%	–
Cc1cc(C)n2ncc(CN3CCCC3c3nc(-c4ccncc4)no3)c2n1 (centres undefined)	–	inactive: 1.03%	–
CNC(=O)c1cc(C)nc2onc(C3CCN([S+](=O)([O-])c4ccccc4)C3)c12 (centres undefined)	–	inactive: -6.35%	–
CC1=C[C@@H](CN2CCOCC2)[C@H](C(C)C)C[C@H]1Cc1nnc(-c2ccc(N(C)C)cc2)o1	inconclusive: 35.5 µM [inhibitor, full curve, poor fit]	–	–
CC(=O)N1CCC(Cc2ccc(C(=O)NC3CCN(Cc4ccccc4)CC3)cc2)CC1	inconclusive: 31.6 µM [inhibitor, partial curve]	–	–
Cn1ncc2c(C(=O)N3CCOCC3)cc(-c3cccc(F)c3)nc21	inconclusive: 79.4 µM [inhibitor, partial curve, poor fit]	–	–
CSc1ccc(-c2cccc(C(=O)NCC(=O)NC3CCCC3)c2)cc1	inconclusive: 35.5 µM [inhibitor, partial curve, poor fit]	–	–
COCCCNC(=O)C(C)(C)Oc1nn(Cc2cccnc2)c2ccc(COC)cc12	–	–	inactive [at 172 µM]
CCN1C(=O)C2CC3(CCN(C(=O)NCCCOC)CC3)CN2C1=O (centres undefined)	–	inactive: -18.7%	–
Cc1ccc(CC(=O)NC2CCN(c3cc(-c4ccc(F)cc4)[nH]n3)C2)cc1 (centres undefined)	inconclusive: 31.6 µM [inhibitor, full curve, poor fit]	–	–
CC(C)CCN1CCC(C2CCNC2)CC1 (centres undefined)	–	inactive: -12.7%	–
Cc1ccc(C(=O)N2CCC(Cn3c(C)cnc3C3CCC3)CC2)cn1	–	inactive: -0.21%	–
Cc1ccc([S+](=O)([O-])N2CCN(C(=O)c3cccc(-c4ccccn4)c3)CC2)cc1	inconclusive: 56.2 µM [inhibitor, partial curve, poor fit]	–	–
O=C(Nc1cccc2ccccc12)O[C@@H]1CO[C@H]2[C@@H]1OC[C@@H]2NCC1CCCCC1	active: 44.7 µM	–	–
COc1ccccc1Cc1nc(-c2nnn3c2COC(c2ccc(C)cc2)C3)no1 (centres undefined)	–	inactive: -20.3%	–
CNC(=O)c1cc(C2CC2)nc2onc(C3CCN([S+](=O)([O-])c4cccs4)C3)c12 (centres undefined)	inconclusive: 50.1 µM [inhibitor, partial curve, poor fit]	–	–
COc1ccc(Nc2cnc3ccc(-c4ccc(F)cc4)nn23)cc1	inconclusive: 89.1 µM [inhibitor, partial curve]	–	–

Structure (SMILES)	Potency	activity change, negative = cytotoxicity	outcome
COC(=O)c1ccc2nc(C[C@@H]3C[C@@H](C(C)C)[C@H](CNC(=O)c4ccccc4)C=C3C)[nH]c2c1	inconclusive: 25.1 µM [inhibitor, full curve]	–	–
CCCc1cc(NCc2cn3c(n2)SCC3)n2nccc2n1	–	inactive: -5.45%	–
Cc1cccc(-c2nc3ccc(C(=O)NCCN4CCOCC4)cc3o2)n1	–	inactive: -18.4% [at 172 µM]	–
C#CCNC(=O)C[C@@H]1CCN(C(=O)CCCCC)C[C@@H]1CC	inconclusive: 50.1 µM [inhibitor, partial curve, poor fit]	–	–
Cc1ccc(NC(=O)Nc2ccc(C)n(CC(=O)Nc3ccc4c(c3)OCO4)c2=O)cc1	–	inactive: -28.7%	–
O=c1c2nc(OCc3ccccc3)ccc2ncn1Cc1ccccc1	inconclusive: 100 µM [inhibitor, partial curve, poor fit]	–	–
O=C(N[C@H]1[C@H](O)[C@H](O)C[C@@H]1c1ccncc1)c1ccccn1	–	inactive: -11.5% [at 172 µM]	–
Fc1ccc2c(c1)nc1n2[C@@H](CNC2CCCCC2)COC1	inconclusive: 63.1 µM [inhibitor, full curve]	–	–
O=C(CCc1ccnc(N2CCCC2)c1)N1CCN(c2cccc(Cl)c2)CC1	active: 31.6 µM	–	–
COCCN1Cc2[nH]nc(-c3ccccc3OCc3ccccc3)c2CC1=O	inconclusive: 100 µM [inhibitor, partial curve, poor fit]	–	–
c1cc(-c2ccco2)cc(-c2nc(C3CCOC3)no2)c1 (centres undefined)	–	inactive: -9.4%	–
COc1cccc(NC(=O)CC2CCCCN(C)C2=O)c1 (centres undefined)	–	–	inactive
O=C(CN1C(=O)C(c2ccccc2)=NC12CCCC2)Nc1ccc2c(c1)OCCO2	inconclusive: 50.1 µM [inhibitor, partial curve, poor fit]	–	–
CC(=O)c1cccc(NC(=O)Cn2c(-c3ccc(F)cc3)nc(C)c(CCO)c2=O)c1	inconclusive: 50.1 µM [inhibitor, partial curve, poor fit]	–	–
O=C(Nc1ccc(Cl)cc1)N1CCC(Oc2ncccc2C(=O)N2CCCCC2)C1 (centres undefined)	–	inactive: 4.23%	–
Cc1c(O)cccc1C(=O)N1CCC2(CC1)Nc1ccccc1NC2=O	inconclusive: 44.7 µM [inhibitor, partial curve, poor fit]	–	–
Cc1nc(N2CCN(C(=O)COc3ccccc3)CC2)cc(C(F)(F)F)n1	inconclusive: 89.1 µM [inhibitor, single point]	–	–
CC(=O)N1CCC(N2C[C@@H]3C[C@H]2C(=O)N(Cc2ccc(OC(F)(F)F)cc2)c2ccccc2O3)CC1	inconclusive: 56.2 µM [inhibitor, partial curve, poor fit]	–	–
Cc1cccc(CNC(=O)c2noc(-c3ccc4c(c3)OCO4)n2)c1	inconclusive: 79.4 µM [inhibitor, partial curve, poor fit]	–	–
O=C(Nc1ccccc1)c1ccc2c(c1)OCCN(CCC(F)(F)F)C2	inconclusive: 10 µM [inhibitor, full curve, poor fit]	–	–
CNC(=O)Nc1ccc(C2(C(=O)N3CCN(c4cccc(Cl)c4)CC3)CCC2)cc1	inconclusive: 56.2 µM [inhibitor, partial curve, poor fit]	–	–
C[C@H]1[C@@H]2[C@@H](O)C([C@H](C)C(=O)NCc3cccnc3)CC[C@@]2(C)CC[C@@H]1NC(=O)c1ccccn1 (some centres undefined)	–	inactive: -23.7%	–

Structure (SMILES)	Potency	activity change, negative = cytotoxicity	outcome
O=C(NC1CCc2nnc(C3CC3)n2CC1)C1CC=CCC1 (centres undefined)	–	inactive: -1.5%	–
O=C(C1=NO[C@@H]2CN(c3ccc(F)c(Cl)c3)C[C@H]12)N1CCOCC1	inconclusive: 112 µM [inhibitor, partial curve, poor fit]	–	–
CN1c2cccnc2CN(C2CCCCC2)CC[C@H]1CO	–	inactive: -1.16% [at 230 µM]	–
O=C(Nc1ccc(F)cc1)N1Cc2[nH]cnc2C[C@H]1c1nc(-c2ccc(F)cc2)no1	inconclusive: 126 µM [inhibitor, partial curve, poor fit]	–	–
O=C(c1ccsc1)N1CCCn2cc(-c3ccc4c(c3)OCO4)nc21	inconclusive: 44.7 µM [inhibitor, partial curve]	–	–
Cc1ccccc1C(=O)NC1CCN(c2ccc3nnc(-c4ccccc4)n3n2)C1 (centres undefined)	inconclusive: 56.2 µM [inhibitor, partial curve, poor fit]	–	–
O=C(c1ccco1)N1CC(Oc2cccc(-c3nc(-c4ccccc4)no3)c2)C1	inconclusive: 50.1 µM [inhibitor, partial curve, poor fit]	–	–
Cc1ccc(C(=O)N2CCc3nc(C(C)C)nc(-c4ccc(Cl)cc4)c3C2)cc1	inconclusive: 44.7 µM [inhibitor, partial curve, poor fit]	–	–
CCCCOc1ccc(-c2nc(C3CC(=O)N(C4CCCCC4)C3)no2)cc1 (centres undefined)	active: 44.7 µM	–	–
CCc1nc2c(c(-c3ccc(O)cc3)n1)CCN(C(=O)c1ccccc1C)CC2	–	inactive: -5.63%	–
COc1ccc(OCc2nc3c(n2Cc2ccccc2)C(=O)N(Cc2ccccc2)CCN3)cc1OC	inconclusive: 50.1 µM [inhibitor, partial curve, poor fit]	–	–
Cc1ccc2c(C)c(C(=O)N3CCCn4cncc4C3)oc2c1	inconclusive: 89.1 µM [inhibitor, single point]	–	–
Cc1ccc(CN(C(=O)c2ccco2)c2ccc(CC(=O)NCC(C)C)cc2)cc1	inconclusive: 89.1 µM [inhibitor, partial curve, poor fit]	–	–
Cc1noc(C)c1CN1CC[C@@H]2OCC(=O)N(Cc3c[nH]c4ccccc34)[C@H]2CC1	inconclusive: 89.1 µM [inhibitor, partial curve, poor fit]	–	–
O=C(NCc1ccccn1)C1(CCO)CCN(c2ncccn2)C1 (centres undefined)	inconclusive: 100 µM [inhibitor, single point]	–	–
O=C(Cc1ccccn1)N1CCC2(C1)C(=O)N(CCc1ccccc1)c1ccccc12 (centres undefined)	inconclusive: 56.2 µM [inhibitor, partial curve, poor fit] and inconclusive: 79.4 µM [inhibitor, partial curve, poor fit]	–	–
COc1ccc(CNC(=O)C[C@@H]2C[C@@H](C(C)C)[C@H](CNC(=O)c3cccnc3)C=C2C)cc1	inconclusive: 44.7 µM [inhibitor, partial curve, poor fit]	–	–
CCCN1CCC2(CCN([S+](=O)([O-])c3cccs3)CC2)Oc2ccccc21	active: 44.7 µM	–	–
COc1ccc(C(=O)NC2CCN(c3cc(-c4cccs4)[nH]n3)C2)cc1OC (centres undefined)	inconclusive: 39.8 µM [inhibitor, full curve, poor fit]	–	–
Cc1ccccc1N(C)C1CN(C(=O)c2ccc(C(F)(F)F)cc2)C1	inconclusive: 100 µM [inhibitor, single point]	–	–
